PubChem BioAssay AID651820 (National Center for Advancing Translational Sciences (NCATS), 2012)
About 12,000 (3.5%) of roughly 340,000 compounds were called active. The inconclusive results got no clear call from the source; some entries with a clear call stand among them for comparison. Calls come from the whole dose curve; as a rule, active = well fitted inhibition curve with a large enough effect; inconclusive = small, poorly fitted or top-dose-only effect, or another doubt; inactive = no such curve, though single readings can be large or run the other way. Potencies of inconclusive entries are left out as doubtful fits.

assay: qHTS Assay for Inhibitors of Hepatitis C Virus (HCV); settings: Huh7.5.1 HCVcc-Cre (HCVcc is cell-culture hepatitis C virus) infection, luciferase reporter, 44 h; activity change, negative = inhibition: at 41.8 µM (top of the series) unless noted
Outline: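 Reporter virus HCVcc-Cre (~0.5 moi) infects cells exposed to compound; seeding density 1,000 cells/well with 4 h settling beforehand. Luminescence, 15 sec read, taken 44 h post-infection following a 15 min RT substrate incubation.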
% is set by controls: 0 for no effect and ±100 for the full control effect; potency is the fitted concentration of half-maximal effect; tags give direction and shape of the fitted curve.

Row | Structure (SMILES) | Potency | activity change, negative = inhibition
1 | Cc1nnc(SCCn2c(N3CCC(Cc4ccccc4)CC3)nc3c2c(=O)[nH]c(=O)n3C)s1 | inconclusive [inhibitor, single point] | 
2 | CCn1ccnc1CN1CCCC(C(=O)c2ccc(OC)cc2OC)C1 (centres undefined) | inconclusive [inhibitor, partial curve] | 
3 | O=C(CN1C(=O)c2ccccc2S1(=O)=O)Nc1ccc([N+](=O)[O-])cc1 | inconclusive [inhibitor, partial curve, poor fit] | 
4 | O=C(CSc1ccc([N+](=O)[O-])cn1)Nc1ccc(N2CCOCC2)c(Cl)c1 | inconclusive [inhibitor, partial curve] | 
5 | CCOc1cc(/C=N/NC(=O)CN2CCCCC2)ccc1OCc1cccc(Cl)c1 | inconclusive [inhibitor, single point] | 
6 | Clc1ccc2nc(N3CCNCC3)nc(-c3ccccc3)c2c1 | active: 10 µM | 
7 | O=C(c1ccc2c(=O)n(CCc3ccccc3)c(=O)[nH]c2c1)N1CCN(c2ccc(F)cc2)CC1 | inconclusive [inhibitor, single point] | 
8 | Cc1c(OCC(=O)NC(Cc2ccc(Cl)cc2)C(=O)O)ccc2c(-c3ccccc3)cc(=O)oc12 (centres undefined) | inconclusive [inhibitor, single point] | 
9 | CCOC(=O)C1=C(O)/C(=C/c2ccccn2)SC1=Nc1ccc(Cl)cc1 | inconclusive [inhibitor, partial curve] | 
10 | COc1cc(-c2nc3c(c(C)nn3-c3ccccc3)c3cc(OC)c(OC)cc23)ccc1O | inconclusive [inhibitor, full curve] | 
11 | N#Cc1c(N)nc(N2CCCC2)c(C#N)c1-c1ccc(Cl)cc1 |  | inactive: -9.89%
12 | C(=Cc1c[nH]c2ccccc12)c1nccc2ccccc12 | inconclusive [inhibitor, single point] | 
13 | CCOc1ccc(S(=O)(=O)NCc2ccc3c(c2)OCO3)cc1NC(C)=O |  | inactive: -4.76%
14 | COc1cc([N+](=O)[O-])ccc1Nc1nc(C)cc(C)n1 | inconclusive [inhibitor, full curve, poor fit] | 
15 | CN(C)CCCN(C(=O)c1cc(-c2cccs2)nc2ccccc12)c1nc2c(F)cccc2s1 |  | inactive: 12.3%
16 | O=C(Nc1nc2ccccc2n1CCN1CCOCC1)c1cn(-c2ccccc2)nc1-c1ccccc1 | active: 10 µM | 
17 | Brc1ccccc1OCCCn1cnc2ccccc21 | inconclusive [inhibitor, single point] | 
18 | CCOc1ccccc1NC(=O)CNC(=O)c1nn(-c2ccc(OC)c(OC)c2)c(=O)c2ccccc12 | inconclusive [inhibitor, single point] | 
19 | COc1ccc(-c2nc(C#N)c(NCc3ccccc3Cl)o2)cc1OC | inconclusive [inhibitor, full curve, poor fit] | 
20 | Cc1cc(C)n(CC(O)Cn2c3ccc(Br)cc3c3cc(Br)ccc32)c(=O)n1 (centres undefined) | inconclusive [inhibitor, single point] | 
21 | Cc1cc(C)c2nc(NCc3ccccc3O)sc2c1 | inconclusive [inhibitor, single point] | 
22 | Cc1ccc(S(=O)(=O)/N=S(/C)c2ccccc2)cc1 (centres undefined) |  | inactive: -13%

Row | Structure (SMILES) | Potency | activity change, negative = inhibition
23 | COc1cccc(-c2nc(CS(=O)(=O)CC(=O)Nc3ccccc3C)c(C)o2)c1 | inconclusive [inhibitor, single point] | 
24 | CCOC(=O)c1c(NC(=O)Cc2cccs2)sc2c1CCCC2 | inconclusive [inhibitor, full curve, poor fit] | 
25 | Cc1cc(C)nc(N/N=C/c2cc(C)n(CC(F)(F)F)c2C)n1 |  | inactive: -0.138%
26 | CCOC(=O)[C@H](C)N1[C@H](C)[C@H](c2ccccc2)Oc2ccc(Cl)cc2S1(=O)=O |  | inactive: 19%
27 | O=S(=O)(NOCc1ccc(Cl)cc1)c1ccc(Cl)cc1 |  | inactive: -12.6%
28 | CCC(=O)Nc1ccccc1C(=O)OCC(=O)c1ccccc1 |  | inactive: 18.9%
29 | COc1ccc(Nc2oc(-c3ccc(Cl)cc3)nc2C#N)cc1 | inconclusive [inhibitor, single point] | 
30 | CCOc1ccccc1NC(=O)COC(=O)c1nc2nccc(C)n2n1 |  | inactive: 5.44%
31 | O=c1oc(-c2cccs2)nc2scc(-c3cccs3)c12 |  | inactive: -0.28%
32 | CC(=O)Nc1cccc2c1C(=O)N(c1ccccc1C)C2=O |  | inactive: 9.3%
33 | Cc1ccccc1OCc1nc2ccccc2c(=O)n1/N=C/c1ccco1 | inconclusive [inhibitor, single point] | 
34 | CCOC(=O)C(NC(=O)CCl)(Nc1sc(C)c(CC)c1C#N)C(F)(F)F (centres undefined) | inconclusive [inhibitor, single point] | 
35 | O=C(Nc1ccc(C(F)(F)F)cc1)OC1CN2CCC1CC2 (centres undefined) | inconclusive [inhibitor, partial curve] | 
36 | O=C1c2ccccc2C(=O)N1CCC#Cc1ccc2cc(C3(O)CCCCC3)oc(=O)c2c1 |  | inactive: -24.6%
37 | O=C(Nc1cc2c(cc1[N+](=O)[O-])OCCO2)c1cccnc1 |  | inactive: 2.75%
38 | COc1ccc(S(=O)(=O)NCc2ccccn2)cc1NC(=O)c1ccc(Cl)cc1 | inconclusive [inhibitor, partial curve] | 
39 | Cc1ccc(S(=O)(=O)NCCC(=O)NCCc2ccccc2)cc1 | inconclusive [inhibitor, single point] | 
40 | CC(C)c1cc(NCC2CCCO2)n2c(nc3ccccc32)c1C#N (centres undefined) | inconclusive [inhibitor, single point] | 
41 | COc1ccc(N2CCN(C(=O)COC(=O)[C@@H](NC(=O)OCc3ccccc3)C(C)C)CC2)cc1 | inconclusive [inhibitor, single point] | 
42 | CC(=O)c1cccc(OCC(O)CN2CCN(S(=O)(=O)c3c(F)cccc3F)CC2)c1 (centres undefined) | inconclusive [inhibitor, single point] | 
43 | COc1cc(NC(=O)c2ccc(COCC(F)(F)F)cc2)cc(OC)c1OC | inconclusive [inhibitor, partial curve] | 
44 | COc1cc(C(=O)Nc2ccc(Nc3ccccc3)cc2)cc(OC)c1OC | inconclusive [inhibitor, partial curve] | 
